# “And” between values parts separate entries of the source, which are not always exact repeats. Equal values may be shown once. Some of the results follow. The main result of the screen is listed elsewhere. These columns were measured beside it and carry no call. Peptide text beside a SMILES is read from it.
# Key:
# Experiment in all cases: Primary Screen for Target Class Profiling of Small Molecule Inhibitors of Methyltransferases
# [1] = biological target: Glycine N-methyltransferase (Homo sapiens) (UniProt Q14749); conditions: purified enzyme, MTase-Glo SAH luminescence; measured here: GNMT inhibition; at 40 µM; stronger effect = lower value
# From the text: (§1) PI: Matthew D. Hall Ph.D. and Quinlin M. Hanson Ph.D.
# (§2) National Center for Advancing Translational Sciences (NCATS)
# (§3) National Institute of Health (NIH), Rockville, MD
# (§4) Target class profiling (TCP) is a chemical biology approach amenable to investigating understudied biological targets. TCP is achieved by developing a generalizable assay platform and applying it to screen a curated set of compound libraries against representative members of a target class. Small molecule methyltransferases (SMMTase) are a subclass of methyltransferase that act on metabolites to modulate signaling pathways, metabolize xenobiotics, or balance the available methyl pool. We screened four curated libraries totaling 27,574 unique compounds against the SMMTases nicotinamide N-methyltransferase (NNMT), phenylethanolamine N-methyltransferase (PNMT), histamine N-methyltransferase (HNMT), glycine N-methyltransferase (GNMT), catechol O-methyltransferase (COMT), and guanidinoacetate N-methyltransferase (GAMT). The data generated by this TCP can be leveraged for informed tool molecule development. For example, in the associated publication we identified a chemotype of HNMT-selective inhibitors. Additionally, we identified a putative SMMTase-selective inhibitor with potential as a tool molecule for studying broader methyltransferase biology.
# (§5) High-through put screening assays were developed at the National Center for Advancing Translational Science (NCATS) for the enzymes NNMT, PNMT, HNMT, GNMT, COMT, and GAMT. Enzymatic activity was measured as a function of SAM cofactor conversion using the MTase Glo kit (Promega) for all enzymes. All assays were performed in 1536-well format with substrates and SAM concentrations at KM values. Enzyme concentration and assay timing were optimized for 10-20% SAM conversion. Initial screening of 27,574 compounds was done as single-point assays using the highest compound concentration (40 uM). […] These compounds were replated in 11-point dose response and assayed against NNMT, PNMT, HNMT, GNMT, COMT, GAMT, and a counter-assay. The IC50 and efficacy (maximal response) values were determined for each dose-response curve. These values are also accounted for in the area under the curve (AUC) values.
# (§6) PROTOCOL TABLE (as described by Inglese J, Shamu CE and Guy RK. 2007)
# (§7) SEQUENCE No. (e.g., 1, 2, 3, etc.); […] (e.g., Cells, Incubation, Reagent, etc.); VALUE; DESCRIPTION.
# (§8) 1; Reagent; 2 uL; SMMTase Enzyme (2x) in reaction buffer, columns 1- 48.
# (§9) 2; Reagent; 1 uL; SAM (4x) in reaction buffer, columns 1-48.
# (§10) 3; Controls; 23 nL; DMSO in column 4; sinefungin in DMSO (0 uM - 40 uM) in 7-point 1:2 dilution series (n = 2) in column 2.
# (§11) 4; Compounds; 23 nL; Columns 5-48.
# (§12) 5; Reagent; 1 uL; Substrate (4x) in reaction buffer, columns 2-48.
# (§13) 6; Time; 20-30 min; Incubation.
# (§14) 7; Reagent; 1 uL; MTase-Glo reagent (5X), columns 1-48.
# (§15) 8; Time; 30 min; Incubation.
# (§16) 9; Reagent; 5 uL; MTase-Glo Detection reagent, columns 1-48.
# (§17) 10; Time; 30 min; Incubation, luminescence evolution.
# (§18) 11; Detection; Luminescence; ViewLux uHTS Microplate Imager (PerkinElmer).
# (§19) NOTES (numbers refer to Sequence numbers above)
# (§20) 1, 2, 5. White Medium Binding Greiner 1536-well plates (Cat #789175-F, Greiner Bio-One, Monroe, NC); Reaction buffer: 50 mM Tris, pH 8.0, 3 mM MgCl2, 1 mM EDTA, 50 mM NaCl, 1 mM DTT, and 0.1 mg/mL BSA. Evaporation was prevented by covering assay plates with metal lids containing holes to allow gas diffusion.
# (§21) 1. Six SMMTase were profiled: HNMT, GNMT, PNMT, COMT, NNMT, GAMT
# (§22) 5. The corresponding substrate was used for each enzyme: HNMT - 5.3 uM Histamine; GNMT - >500 uM Glycine; PNMT - 16.2 uM Norephinephrine; COMT - 13.7 uM Norephinephrine; NNMT - 3.8 uM Nicotinamide; GAMT - 2.5 uM Guanidinoacetate.6, 8, 10. Room temperature
# (§23) 6. Final reaction conditions: 10 nM COMT, 5 uM SAM, 15 uM norepinephrine, 50 mM Tris, pH 8.0, 3 mM MgCl2, 1 mM EDTA, 50 mM NaCl, 1 mM DTT, and 0.1 mg/mL BSA; refer to tables 2 and S1 for specific timing.
# 8. […]
# [2] = biological target: Guanidinoacetate N-methyltransferase (Homo sapiens) (UniProt Q14353); conditions: purified enzyme, MTase-Glo SAH luminescence; measured here: GAMT inhibition; at 40 µM; stronger effect = lower value
# From the text: as §1, §2, §3, §4, §5, §6, §7, §8, §9, §10, §11, §12, §13, §14, §15, §16, §17, §18, §19, §20, §21, §22, §23
# 8. […]
# [3] = biological target: Histamine N-methyltransferase (Homo sapiens) (UniProt P50135); conditions: purified enzyme, MTase-Glo SAH luminescence; measured here: HNMT inhibition; at 40 µM; stronger effect = lower value
# From the text: as §1, §2, §3, §4, §5, §6, §7, §8, §9, §10, §11, §12, §13, §14, §15, §16, §17, §18, §19, §20, §21, §22, §23
# 8. […]
# [4] = biological target: Nicotinamide N-methyltransferase (Homo sapiens) (UniProt P40261); conditions: purified enzyme, MTase-Glo SAH luminescence; measured here: NNMT inhibition; at 40 µM; stronger effect = lower value
# From the text: as §1, §2, §3, §4, §5, §6, §7, §8, §9, §10, §11, §12, §13, §14, §15, §16, §17, §18, §19, §20, §21, §22, §23
# 8. […]
# [5] = biological target: Phenylethanolamine N-methyltransferase (Homo sapiens) (UniProt P11086); conditions: purified enzyme, MTase-Glo SAH luminescence; measured here: PNMT inhibition; at 40 µM; stronger effect = lower value
# From the text: as §1, §2, §3, §4, §5, §6, §7, §8, §9, §10, §11, §12, §13, §14, §15, §16, §17, §18, §19, §20, §21, §22, §23
# 8. […]
# % is set by controls: 0 for no effect and ±100 for the full control effect.
SMILES,"activity change, negative = inhibition [1]","activity change, negative = inhibition [2]","activity change, negative = inhibition [3]","activity change, negative = inhibition [4]","activity change, negative = inhibition [5]"
CCOC(=O)c1cccc(CNc2ccc(N(C)C(=O)Nc3ccccc3)cc2)c1,0.81%,-4.26%,6.57%,-20.7%,-38.6%
Cc1cc(C(=O)N(C)CC2(C)CCOCC2)nn1C,-0.707%,-5.49%,0.589%,0.211%,-3.36%
CN1CCC[C@@H]1Cc1c[nH]c2ccc(CCS(=O)(=O)c3ccccc3)cc12,8.07% and 1.25%,6.88% and -0.322% and -4.5%,-87.2% and -89.1%,-3.61% and -7.64% and -13.1%,2.52% and 2.76% and -2.57%
CC(C)C(=O)N1CCC2(CC1)OC(=O)N(Cc1ccccc1)C2(C)c1cccnc1 (stereo not drawn),-0.88%,0.365%,-1.23%,-6.65%,-0.863%
O=C(CCc1nnc2n(CCc3ccccc3)c(=O)c3ccccc3n12)NCCCN1CCCC1=O,0.651%,4.82%,4.83%,11.6%,1.07%
CC(C)[N+](C)(CCOC(=O)C1c2ccccc2Oc2ccccc21)C(C)C,-3.09%,3.71%,-2.34%,-7.84%,3.07%
CNC(=O)COC(=O)NCCC1CCN(c2cccc(C)n2)CC1,7.54%,8.59%,10.7%,-9.91%,5.27%
CCN(CC)C(=O)CCn1ccc2cc(S(=O)(=O)N3CCCCC3)ccc21,7.33%,0.23%,3.58%,1.11%,-6.45%
CSCC[C@H](NC(=O)[C@H](CO)NC(=O)[C@H](CCC(=O)O)NC(C)=O)C(=O)N[C@H](C=O)CC(=O)O (Ac-ESMD-aldehyde),-0.318%,1.01%,0.341%,-15%,-5.72%
COc1cncc(C#Cc2ccccn2)c1,0.543%,6.23%,8.47%,-11.5%,2.08%
Cc1c(OCc2cccc(-c3ccc(C(=O)O)cc3)c2)cc2c(c1C)C(=O)C(C1CCCC1)C2 (stereo not drawn),-48.9%,-15.6%,-6.54%,-62.5%,-7.48%
CCCCCCCCCCCCCC#CC(=O)[C@@H]1COC(C)(C)N1C(=O)OC(C)(C)C,–,-1.2%,–,-4.77%,4.68%
COC(=O)c1cc2n(n1)CC(C)(C(=O)NC1CCCCC1)N(c1ccc(F)cc1C)C2=O (stereo not drawn),5.54%,0.944%,5.11%,6.08%,4.78%
CSc1ccc(CCNC(=O)c2cc3n(n2)CC(C)(C(=O)NCc2ccc(C)cc2)N(C)C3=O)cc1 (stereo not drawn),4.87%,0%,6.17%,3.19%,2.13%
CNC(=O)[C@@H]1C[C@@H](n2cc(CNC(=O)Nc3ccc(Cl)cc3C)nn2)CN1,-1.86%,-1.31%,0.952%,1%,16%
CCCn1c(=O)c2cc(F)ccc2n2c(SCC(=O)Nc3ccc(C)cc3)nnc12,7.74%,1.35%,10.9%,8.44%,6.35%
Cc1ccc(Cc2c(C)nc3nc(SCC(=O)NCCN4CCNCC4)nn3c2C)cc1,-2.34%,-4.52%,-12.6%,-16.8%,-1.85%

# — PubChem BioAssay AID1745853 (National Center for Advancing Translational Sciences (NCATS), 2022)
